Experimental data as given in PubChem BioAssay AID360 (National Center for Advancing Translational Sciences (NCATS), 2006).
Hit rate of the full screen: of about 48,000 compounds, about 550 (1.1%) were called active. Not shown: some 4% with an inconclusive outcome. Rule as the data show it: active = potency below about 15 µM; inconclusive = mostly about 16 µM to 33 µM; inactive = weaker than that. Some of the results follow.

The compounds below were run against Lysosomal acid glucosylceramidase (Homo sapiens) (UniProt P04062) (assay: Glucocerebrosidase). Conditions: purified enzyme, resorufin glucoside fluorescence (screen aimed at inhibitors), 20 min.
UniProt P04062, sequence (P04062 whole entry, looked up): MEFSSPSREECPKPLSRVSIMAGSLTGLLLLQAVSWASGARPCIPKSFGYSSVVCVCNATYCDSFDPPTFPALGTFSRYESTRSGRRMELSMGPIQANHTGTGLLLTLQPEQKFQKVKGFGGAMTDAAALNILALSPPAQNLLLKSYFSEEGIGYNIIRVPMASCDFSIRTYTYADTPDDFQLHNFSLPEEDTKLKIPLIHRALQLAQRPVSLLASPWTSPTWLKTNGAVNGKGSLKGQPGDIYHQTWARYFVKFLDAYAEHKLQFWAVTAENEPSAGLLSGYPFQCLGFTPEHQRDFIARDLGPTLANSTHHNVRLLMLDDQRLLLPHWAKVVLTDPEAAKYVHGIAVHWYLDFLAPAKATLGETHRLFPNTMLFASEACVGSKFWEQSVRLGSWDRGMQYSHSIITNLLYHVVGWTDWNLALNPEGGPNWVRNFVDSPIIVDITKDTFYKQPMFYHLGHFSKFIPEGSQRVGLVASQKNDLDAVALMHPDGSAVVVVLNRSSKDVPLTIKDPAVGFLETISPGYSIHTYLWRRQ
In short: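 Compounds titrated against 0.2 nM normal enzyme, 30 uM resorufin beta-D-glucopyranoside substrate, citrate/phosphate buffer with taurocholate and tween-20, pH 5.9. Reaction ran 20 min at room temperature; fluorescence (Ex 548/Em 600) gave AC50.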
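Also: the screen sought inhibitors.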
Potency is read from the fitted curve at half-maximal effect.

Potency, inactive:
O=S1(=O)N=C(SCCO)c2ccccc21 > 76.9 µM, Cc1ccc(NC(=O)c2nc[nH]c2C(=O)N2CCCCC2)c(C(=O)c2ccccc2)c1 > 76.9 µM, CCOc1ccc2[nH]c(=O)c(CN(Cc3cccnc3)C(=O)Nc3ccccc3OC)cc2c1 > 76.9 µM, CCOC(=O)N1CCN(C(=O)c2ccc(C)c(S(=O)(=O)Nc3ccccc3)c2)CC1 > 76.9 µM, CC(=O)Nc1ccc(C)cc1NC(C)=O > 76.9 µM, COc1ccccc1N1CCN(CC(=O)c2c(C)[nH]c3cc(C)ccc23)CC1 > 76.9 µM, COCc1nc2ccccc2n1CCOc1ccccc1OC > 76.9 µM, Cc1ccc(NC(=O)N(Cc2ccco2)C(C)c2ccco2)cc1C (centres undefined) > 76.9 µM, Cc1nc(N)nc(C)c1Cc1ccccc1 > 76.9 µM, O=C(NCc1ccco1)c1nc2ncccn2n1 > 76.9 µM, COc1cc(SC)ccc1C(=O)NCC1CCCO1 (centres undefined) > 76.9 µM, Cc1sc2ncn(CC(=O)NCc3ccccn3)c(=O)c2c1S(=O)(=O)N1CCOCC1 > 76.9 µM, N#Cc1nc(COc2ccc(-c3ccccc3)cc2)oc1NCc1cccnc1 > 76.9 µM, Cc1cc(-c2ccccc2)c(C#N)c(SCC(N)=O)n1 > 76.9 µM, COc1ccc(CCNS(=O)(=O)c2ccc3c(c2)CCN3C(=O)CCC(=O)O)cc1OC > 76.9 µM, CCCc1cc2c(c(NC(C)=O)n1)c(=O)oc1ccccc12 > 76.9 µM, C=C(C)Cn1c(Sc2nnc(C)s2)nc2c1c(=O)[nH]c(=O)n2C > 76.9 µM, Cc1c(C(=O)Nc2c(C)n(C)n(-c3ccccc3)c2=O)oc2ccccc12 > 76.9 µM, CCCCCCC1CC(CSc2ncn[nH]2)OC1=O (centres undefined) > 76.9 µM, COc1cc(C2C(=O)N(C3CCCC3)CC(=O)N2Cc2ccco2)ccc1OC(C)C (centres undefined) > 76.9 µM, CCc1nc(N2CCN(c3nc(C)cc(C)n3)CC2)c2oc3ccccc3c2n1, CCOc1ccccc1C1C(C(=O)OC)=C(N)OC2=C1C(=O)CCC2 (centres undefined) > 76.9 µM, Cc1ccc(NC(=O)CCC(C(=O)O)N2C(=O)c3ccccc3C2=O)cc1 (centres undefined) > 76.9 µM, O=C(c1cccc(F)c1)N1CCN(C(=O)c2nn3cccnc3c2Cl)CC1 > 76.9 µM, Cn1nnnc1SCC(=O)Nc1ccc(Cl)cc1Cl > 76.9 µM, Cc1ccc(-n2nc(-c3cccs3)cc2C(=O)NCC2CCCO2)c(C)c1 (centres undefined) > 76.9 µM, CCC(=O)Nc1c(C#N)c2nc3ccccc3nc2n1-c1ccccc1C > 76.9 µM, Cc1cc(C(=O)NC(C)C2CCCO2)cs1 (centres undefined) > 76.9 µM, CCOC(=O)Cc1csc(NC(=O)CSc2nnnn2-c2ccc(F)cc2)n1 > 76.9 µM, CCOc1ccccc1C(=O)N(C)Cc1cc2ccccc2[nH]c1=O > 76.9 µM, CC(C)N(Cc1ccccc1)S(=O)(=O)N(C)C > 76.9 µM, C=CCN(C(=O)c1ccccc1)c1ccc(OC)cc1 > 76.9 µM, Cc1ccc2[nH]c(=O)c(CN(CCCN3CCOCC3)Cc3nnnn3C3CCCC3)cc2c1 > 76.9 µM, Cc1cnc(C(=O)Nc2ccc(N3CCN(C(=O)OC(C)(C)C)CC3)cc2)cn1 > 76.9 µM, O=C(CSc1nnnn1-c1ccc2c(c1)OCCO2)c1cccc2c1OCCO2 > 76.9 µM, Cc1ccc(CCNC(=O)CCNS(=O)(=O)c2ccc3c(c2)oc(=O)n3C)cc1 > 76.9 µM, Brc1ccccc1-c1nnc(-c2cccnc2)o1 > 76.9 µM, Cc1noc(C)c1S(=O)(=O)N1CCC(C(=O)N(C)Cc2ccccc2)CC1 > 76.9 µM, CCN1CCCC1CNC(=O)C(NC(=O)C1CCC(C)CC1)C(C)C (centres undefined) > 76.9 µM, COCCOC(=O)C1=C(C)Nc2nc(C)nn2C1c1ccc(F)cc1 (centres undefined) > 76.9 µM, CCCCN1C(=O)CN(CCc2ccccc2)C(=O)C1c1ccc(OC)cc1 (centres undefined) > 76.9 µM, CCc1[nH]nc2c1C1(CCOC1C)C(C#N)=C(N)O2 (centres undefined) > 76.9 µM, COc1ccc(CCNc2oc(COc3ccc(F)cc3)nc2C#N)cc1, O=C(CN1C2=NCCN2c2ccccc21)c1ccc2c(c1)OCO2 > 76.9 µM, Cc1ccc(C(=O)OCC(=O)Nc2sc3c(c2C#N)CCCCC3)cc1NC(=O)c1ccco1 > 76.9 µM, Cc1ccc(CC2SC(=O)NC2=O)cc1Cl (centres undefined) > 76.9 µM, CCOc1cccc(NC(=O)C2CC(=O)N(C)C(=Nc3cccc(F)c3)S2)c1 (centres undefined) > 76.9 µM, O=C(O)CCc1ccc(-c2ccccc2)o1 > 76.9 µM, COc1ccc(NC(=O)CSc2nnc(-c3ccccn3)n2N)c(OC)c1 > 76.9 µM, CC1(C)Cc2ccccc2C(/C(=N/O)C(N)=O)=N1 > 76.9 µM, O=C(NCc1cccc(C(F)(F)F)c1)C1CCN(c2ncccn2)CC1 > 76.9 µM, CCc1c(C)nc2ncnn2c1N1CCCC(C(=O)NCCc2ccccc2)C1 (centres undefined) > 76.9 µM, CCSc1nc2c(c(=O)[nH]c(=O)n2C)n1C/C=C(/C)Cl > 76.9 µM, Cc1nc(NCc2ccc3c(c2)OCO3)c2nnn(Cc3ccccc3)c2n1 > 76.9 µM, c1ccc(N2CC[N+]3(CCCC3)CC2)nc1 > 76.9 µM, O=C(OCc1cc2ccccc2[nH]c1=O)c1ccccc1 > 76.9 µM, O=C(NC12CC3CC(CC(C3)C1)C2)C1=COCCO1 > 76.9 µM, Cc1ccc(Nc2nc(CSc3nnnn3C)cs2)cc1 > 76.9 µM, COc1ccc(-c2csc(Cc3nnc(N4CCOCC4)n3-c3ccccc3)n2)cc1 > 76.9 µM
